Results published in the supplement of paper PMC11417369.
Some of the results follow.

System: PfSIP2 AP2 domain 1 (GST-tagged)
Test: gcPBM binding intensity (ln(normalized median fluorescence intensity)); higher = stronger DNA binding
How it was run: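 Alexa488 anti-GST antibody, scanned at 488 nm, detected GST-tagged P. falciparum DNA-binding domains that had been expressed in E. coli and incubated for 1 h on an Agilent 4 × 180k array. The array carried primer-extended double-stranded 36-bp intergenic genomic probes and negative controls. Binding intensity is the highest Masliner-normalised natural-log median intensity across replicate spots of either orientation of each probe.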

| Sequence | gcPBM binding intensity (ln) |
| --- | --- |
| AAACATTTATGAAGGTGTACAAAAATGAATTAAAAA [XGTACX_site7035] | 6.87 |
| TTTATAATAAAAAATACATGCAGTTATATATAATAA [TGCATGCA_site654] | 7.15 |
| ATATTGAAAATTTGAAGTACATCTAAATATATTATT [XGTACX_site7817] | 6.93 |
| TATATATAAATAAACACACACAAATATAATAAAAAA [CACACA_site3526] | 7.08 |
| ATCCGTGTCTGAAATACACACATGACAATGTGAATG [CACACA_site6556] | 6.96 |
| ATAATGTGTTTGGTATTCTTGATAGATAGTTTTGTG [CACACA_negctrl_site68] | 6.99 |
| TATTTTACATAAAAGAAAAAAAAAAAAAAAAAAAAA [CACACA_negctrl_site1460] | 6.85 |
| TATAAAAAAATAATAAAATAATAAAATATATAAATA [TGCATGCA_negctrl_site394] | 6.67 |
| TTTTAAAAGGTAAAATGTACATATATAATATATACA [XGTACX_site1222] | 6.73 |
| ATTCTATTATCCTTTGCACACAAAATAAATGAAAAA [CACACA_site3030] | 7.8 |
| CCTTCCTTGAATTTTACATGCAAAAAATTATAAAAC [TGCATGCA_site663] | 7.2 |
| TATATATTATATATTTGTACATATATATAAAAACTT [XGTACX_site449] | 7.2 |
| TTTTTTCAATATTATATCCAAAAATATTTGTAAATA [TGCATGCA_negctrl_site596] | 6.67 |
| TTATTAAAATATACATTTGAAAGTAATCTTATTTAA [XGTACX_negctrl_site431] | 6.64 |
| AAAATATGTTAATATTGTACTTAAATAAAAAAAATA [XGTACX_site7152] | 6.96 |
| ATTCTTAAAATAAAATGTACGAAAAAAAAAAAAAAA [XGTACX_site1657] | 7.33 |
| ATACACATAACATATATATATATATATATATATATC [CACACA_negctrl_site278] | 8.08 |
| TATATATATATAAACGCATGTAATTTATACACACAT [TGCATGCA_site946] | 9.17 |
| ATCTTTCCTTTTGCATGTACATATGGAAATACTTTT [XGTACX_site6995] | 7.22 |

| Sequence | gcPBM binding intensity (ln) |
| --- | --- |
| ATAATTAAGTTATGTGTGCACTGTTAAAAATAAATG | 10.4 |
| TTTTATGATATTTACACACAAACGTGAGATAGCTCA [CACACA_site2311] | 7.01 |
| AATATAATATCTATAATATAAAAAAAACAAAAAAAA [CACACA_negctrl_site875] | 6.92 |
| ATATTTTTATATAATGAACACACATATTATATCATT [CACACA_site8446] | 6.95 |
| TAAAAGGATACATATACACACATATATATATATATA [CACACA_site2791] | 9.82 |
| TTCTTCAACAAAAAAATAAAAATAAAATAATAAAAA [GTGCAC_negctrl_site619] | 6.81 |
| TTTAAAAAATTATATTCACACACATACACATATATA [CACACA_site8076] | 6.97 |
| ATAAATCGATAAAATATATGCTACATGAATAAATAA [XGTACX_negctrl_site604] | 6.91 |
| TACCAAAAAAAAAAAAATAAAAATAAAAAAAAAAAT [CACACA_negctrl_site1714] | 6.83 |
| AAAATAAAAATAAAAGCACACATAAATATATATATA [CACACA_site8409] | 8.73 |
| CTTTATTATAAGATTACACACATGTCTTATAATTTA [CACACA_site5715] | 6.81 |
| TAAAAGTTTTTATACATACACACCTATAAATTAAGT [CACACA_site2446] | 7.21 |
| TAACTATTATAAAAATGTACAAATGAAAATATTTTT [XGTACX_site1438] | 6.95 |
| TAATTAAATACATTAACACACACACTAATATATACA [CACACA_site8938] | 7 |
| TTCCTGTTAATTACAACACACAATTTTTATTTTATG [CACACA_site779] | 7.16 |
| AAGGCATGACTATCTGCACACATAAAAATAAGAAAT [CACACA_site8180] | 7.23 |
| AATTTTTTTTTTTTGTGTCCTCATAATTCTTCATTC [XGTACX_site5042] | 7.03 |
| TAAACATAATAATATACACACATATATTGATATATA [CACACA_site2144] | 6.83 |
| TAAAAAAAAATATAATGTACGTATAAATATATATTA [XGTACX_site5085] | 6.98 |

| Sequence | gcPBM binding intensity (ln) |
| --- | --- |
| ATTTTTTTGGTAATTTGTACATAATATATACATAAT [XGTACX_site3742] | 7.21 |
| AAAATTAAAACCTACACACACATTTAAAAAAAAAAA [CACACA_site3068] | 6.8 |
| TATATTTATTTAAAAACATGCATTTTTTTTTTCCGT [TGCATGCA_site44] | 6.76 |
| TTTTTTTTTTTTACATGTACTTATTTTAAATATAAA [XGTACX_site805] | 7.12 |
| TATATTATAGGTTGTGTACACATATTATATAGTACT [CACACA_site4583] | 7.16 |
| ATATATTTATAGACTTGTACATATATATACGATATA [XGTACX_site8890] | 7 |
| CATCTGGTATCTAATAGTACATATATATAATATCTT [XGTACX_site2774] | 6.96 |
| AACAAAAGAAAAAAATATATATATTCGTCCTATTTT [CACACA_negctrl_site444] | 7.02 |
| TATATATGCATTAAAGTGTTTTTTTTTTTTTTTTTT [CACACA_negctrl_site1353] | 7.72 |
| ATGTGTATATGTTAATGTACAAATTTTGAAAATGCC [XGTACX_site2685] | 7.46 |
| TTAAAAAATATATACGTTGATATAATACAACTTGAC [CACACA_negctrl_site1551] | 6.92 |
| TGTATAACCATAAATTGTACAGAAAAAAGTATAAAA [XGTACX_site1493] | 6.95 |
| ATTTTTTTTTTTTATGGTACACACACGCGTATGGTT [XGTACX_site3888] | 7.18 |
| TTTCAACTTTTGTCATGTACACATAATTTTATTGCA [XGTACX_site6701] | 7.07 |
| ATTTATTTATCAAATATTATCTTAAAAAAAAAAGAA [CACACA_negctrl_site1345] | 6.93 |
| ATATTAAATATATACAGTACACATTACAATACAATA [XGTACX_site3221] | 7.17 |
| CTTTGTAGTTGGTCCACACACATATCTGGAAGAATA [CACACA_site4834] | 6.94 |
| TAAGCGTTTTTTAAAACACACATAAGAACTAAATGA [CACACA_site1670] | 6.82 |
